# Measurements: the antibiotic and cytotoxicity screens of Wong et al. (2023)
# The list shows a part of the results.
# Tested on: HepG2
# Assay: cytotoxicity call (relative viability < 0.9)
# Conditions: 10 µM
row,SMILES,cytotoxicity call
1,Cc1ccc(S(=O)(=O)N2C[C@H](O)COC[C@H]3O[C@@H](CC(=O)NCCCN(C)C)CC[C@@H]32)cc1,inactive
2,COc1cccc2c1C(=O)c1c(O)c3c(c(O)c1C2=O)C[C@@](O)(C(C)=O)C[C@@H]3O[C@H]1C[C@H](N)[C@H](O)[C@H](C)O1,active
3,COc1ccc(NC(=O)Nc2ccc3c(c2)C(=O)N([C@@H](C)CO)C[C@H](C)[C@H](CN(C)Cc2ccc(C(=O)Nc4ccccc4N)cc2)O3)cc1,inactive
4,COc1ccc(C#Cc2ccc3c(c2)[C@]2(C(=O)N3)[C@H](c3ccc(O)cc3)N3[C@H](c4ccccc4)[C@H](c4ccccc4)OC(=O)[C@H]3[C@@H]2C(=O)O)cc1,inactive

# Tested on: S. aureus RN4220
# Assay: growth inhibition call (relative growth <= 0.2)
# Conditions: 50 µM
row,SMILES,growth inhibition call
1,CC(C)C[C@H](NC(=O)[C@H](CCCCN)NC(=O)CNC(=O)[C@H](CC(C)C)NC(=O)[C@@H](NC(=O)[C@@H]1CSSC[C@H](N)C(=O)N[C@@H](CO)C(=O)N[C@@H](CC(N)=O)C(=O)N[C@@H](CC(C)C)C(=O)N[C@@H](CO)C(=O)N[C@@H]([C@@H](C)O)C(=O)N1)C(C)C)C(=O)N[C@@H](CO)C(=O)N[C@@H](CCC(N)=O)C(=O)N[C@@H](CCC(=O)O)C(=O)N[C@@H](CC(C)C)C(=O)N[C@@H](Cc1c[nH]cn1)C(=O)N[C@@H](CCCCN)C(=O)N[C@@H](CC(C)C)C(=O)N[C@@H](CCC(N)=O)C(=O)N[C@H](C(=O)N[C@@H](Cc1ccc(O)cc1)C(=O)N1CCC[C@H]1C(=O)N[C@@H](CCCNC(=N)N)C(=O)N[C@H](C(=O)N[C@@H](CC(=O)O)C(=O)N[C@H](C(=O)NCC(=O)N[C@@H](C)C(=O)NCC(=O)N[C@H](C(=O)N1CCC[C@H]1C(N)=O)[C@@H](C)O)C(C)C)[C@@H](C)O)[C@@H](C)O,inactive
